From PubChem BioAssay AID463173 (ICCB-Longwood Screening Facility, Harvard Medical School, 2010)
The campaign covered roughly 52,000 compounds. About 1,700 (3.3%) were called active. Cut-off read from the data, not from the text of the source: active = survival mostly below about 52% (no sharp cut-off); inactive = mostly above about 56%. The list shows a part of the results.

system: Wild type; test: S. aureus survival, RN4220 and DeltatarO strains – OD600, teichoic acid synthesis inhibitors, primary screen (AID 463173); settings: S. aureus RN4220 wild type/DeltatarO growth, OD600, 18 h, active compounds read low, screened at 18.75 µg/mL (by protocol)

SMILES | survival
O=C(c1ccc2c(c1)N(Cc1ccccc1F)C(=O)c1ccccc1S2(=O)=O)N1CCCC1 | inactive: 97%
COc1ccc(-c2cc(-c3ccccc3)nc(SCC(=O)CC(=O)OC(C)C)c2C#N)cc1 | inactive: 78%
CC(NC(=O)CCSCc1ccccc1F)c1ccccc1 (stereo unspecified) | inactive: 73%
COc1ccc(C(=O)N(Cc2cc(OC)c(OC)c(OC)c2)CC2CCCO2)cc1 (stereo unspecified) | inactive: 88%
Cc1cc(F)ccc1NCc1ccccc1-c1nnc(-c2ccccc2Cl)o1 | inactive: 83%
O=C(NCC(c1cccnc1)N1CCc2ccccc21)c1cccc(C(F)(F)F)c1 (stereo unspecified) | inactive: 70%
CC(C)OC(=O)CN1C(=O)C(C)(C)Oc2ccc(C(=O)Nc3ccccc3)cc21 | inactive: 97%
COC(=O)C1(C)NC(c2ccc(OC)cc2)C2C(=O)N(c3ccccc3)C(=O)C21 (stereo unspecified) | inactive: 105%
COc1ccc(CCCc2nnc(SCC(=O)Nc3ccc(C)cc3C)o2)cc1 | inactive: 89%
CCN(CC)S(=O)(=O)c1cc(-c2onc(C)c2C)ccc1OC | inactive: 87%
Cc1ccc(-c2noc(-c3nnn(CC(=O)Nc4cc(C)cc(C)c4)c3N)n2)cc1 | inactive: 111%
O=C(CSc1nccn1Cc1ccc(F)cc1)Nc1ccc2c(c1)OCCO2 | inactive: 73%
CCCNC(=O)CSc1nc2nc(C)c(Cc3ccccc3Cl)c(C)n2n1 | inactive: 69%
CCc1ccc(C(=O)c2cn(CC(=O)Nc3ccc(OC)cc3OC)c3ccc(CC)cc3c2=O)cc1 | inactive: 80%
O=C1c2ccccc2C(=O)N1CCCn1nnc(-c2ccc(N3CCOCC3)cc2)n1 | inactive: 122%
O=C(NCc1cccc(Cl)c1)C1CCN(C(=O)c2sccc2-n2cccc2)CC1 | inactive: 79%
COc1cccc(C(=O)Nc2cccc(C(=O)OCc3cc(=O)n4nc(C(C)C)sc4n3)c2)c1 | inactive: 70%
COc1ccc(C(C(C#N)C#N)C2C(=O)N(Cc3ccccc3)N=C2C)cc1 (stereo unspecified) | inactive: 98%
Cc1ccc(N(C)C(=O)c2cnc(N3CCOCC3)c3ccccc23)cc1C | inactive: 72%
CC(=O)N1CCC(N(C(=O)Nc2c(F)cccc2F)C(C)C)CC1 | inactive: 81%
CSc1nc2sc3c(c2c(=O)n1-c1ccc(F)c(Cl)c1)CCN(C(C)=O)C3 | inactive: 58%
Cc1cc(C)cc(NC(=O)CSc2nc(-c3cccc(Cl)c3)nc3c2Cc2c(CO)cnc(C)c2O3)c1 | inactive: 132%

SMILES | survival
COc1ccc(CNC(=O)Cn2c(SCC(=O)Nc3ccc(C)c(C)c3)nc3ccccc32)cc1 | inactive: 74%
CCOc1ccc(-c2nc(SCC(=O)NCCOC)c(-c3ccc(OC)c(OC)c3)[nH]2)cc1 | inactive: 79%
CCc1ccc(-n2nc(C)c3c(C(=O)Nc4cc(OC)cc(OC)c4)cc(C)nc32)cc1 | inactive: 66%
O=C(CSC1=Nc2ccccc2C2=NC(Cc3ccccc3)C(=O)N12)Nc1ccccc1F (stereo unspecified) | inactive: 127%
CCOC(=O)NC1(C(F)(F)F)NC(=O)N(c2ccc(C)c(C)c2)C1=O (stereo unspecified) | inactive: 94%
CCC(C(=O)NC1CCCC1)N(Cc1ccc2c(c1)OCO2)C(=O)c1snc(C(N)=O)c1N (stereo unspecified) | inactive: 121%
COc1ccc(S(=O)(=O)NCCc2csc(-c3ccc(F)cc3)n2)cc1 | inactive: 89%
Cc1cc(C)cc(OCC(=O)Nc2ccc(S(=O)(=O)Nc3onc(C)c3C)cc2)c1 | inactive: 73%
NNC(=O)c1nsnc1-c1ccccc1O | inactive: 99%
COc1ccc(-n2nc(C(=O)Nc3cccc(C(F)(F)F)c3)c3c4ccccc4n(C)c3c2=O)cc1 | inactive: 79%
O=C(NCCN1CCOCC1)c1ccncc1 | inactive: 120%
Cc1nc(CC(=O)Nc2ccc(N(C)C)cc2)cs1 | inactive: 83%
Cc1nn(CC(=O)NCc2ccccc2Cl)c(=O)c2nn(-c3ccccc3)c(C)c12 | inactive: 130%
Cc1ccccc1NC(=O)CSC1=Nc2ccccc2C2=NC(CCC(=O)NCc3ccccc3)C(=O)N12 (stereo unspecified) | inactive: 85%
COC(=O)CN1C(=O)CSc2ccc(S(=O)(=O)N3CCOCC3)cc21 | inactive: 128%
COC(=O)c1sccc1S(=O)(=O)N(CC(=O)NCc1ccc(C)cc1)c1ccc(Cl)cc1 | inactive: 76%
Cc1ccc(N2C(=O)C3C4C=CC(CNC(=O)OCc5ccccc5)(O4)C3C2=O)cc1 (stereo unspecified) | inactive: 100%
COc1ccc(C(=O)Nc2ccc3nc(SCC(=O)N4CCCc5ccccc54)sc3c2)cc1 | inactive: 118%
CCN(CC)C(=O)c1sc2c(c1C)c(=O)n(-c1ccc(Cl)c(Cl)c1)c(=O)n2Cc1cc(=O)n2c(C)cccc2n1 | active: 0%
COc1ccccc1CNC(=O)CN1C(=O)COc2ccc(S(=O)(=O)N3CCCCC3)cc21 | inactive: 86%
O=S(=O)(NCc1cccc(Br)c1)c1ccc(-c2cc(C(F)(F)F)on2)s1 | inactive: 53%
Cc1cc(C)cc(N2C(=O)N(CC(=O)c3ccc(Br)cc3)c3ccccc3S2(=O)=O)c1 | inactive: 84%

SMILES | survival
Cc1ccc(-c2nc(C)c(CCNS(=O)(=O)c3ccccc3F)s2)cc1 | inactive: 67%
CCCCn1cc(S(=O)(=O)c2ccc(OC)cc2)c(=O)c2cc(F)c(N3CCCC3)cc21 | inactive: 82%
CCOc1ccc(NC(=O)Cn2cc(C(=O)c3ccc(C)c(C)c3)c(=O)c3cc4c(cc32)OCCO4)cc1 | inactive: 80%
Cc1ccccc1-c1nnc(SCC(=O)Oc2c(C)cccc2C)o1 | inactive: 102%
CN1C(=O)C(C)(C)c2cc(S(=O)(=O)NCc3ccc(C(=O)Nc4ccc(Cl)cc4)cc3)ccc21 | inactive: 89%
Cc1cccc(NC(=O)N2CCC(CN3CCc4ccccc4C3)CC2)c1C | active: -4%
CCC(C)(C)n1nnnc1CN(Cc1ccccc1)Cc1cc2cc(OC)ccc2[nH]c1=O | inactive: 107%
O=C1C(=O)N(C2CCN(S(=O)(=O)c3ccc(F)cc3)CC2)CCN1Cc1ccccc1 | inactive: 128%
CCN(C(=O)c1oc2ccc(S(=O)(=O)N3CCCCCC3)cc2c1C)c1ccccc1 | inactive: 135%
CCOC(=O)c1cccc(NC(=O)CN2C(=O)CC(C)(C)Sc3ccccc32)c1 | inactive: 79%
CCOC(=O)c1cc(S(=O)(=O)N2CCN(c3ccc(OC)cc3)CC2)[nH]n1 | inactive: 121%
Cc1ccc(NC(=O)CSc2nncn2N)cc1C | inactive: 108%
Cc1cccc(C)c1OCc1nc2c3cnn(-c4cccc(F)c4)c3ncn2n1 | inactive: 94%
COc1ccc(CCNC(=O)CCCn2c(=O)c3ccccc3n(Cc3ccccc3C)c2=O)cc1OC | inactive: 98%
Cc1ccc(-n2ncc(C(=O)NCCN3CCc4ccccc4C3)c2C2CCN(C(=O)OC(C)(C)C)CC2)cc1 | inactive: 89%
Cc1ccc(Nc2c(-c3ccc(N4CCOCC4)cc3)nc3ncccn23)cc1 | inactive: 131%
Cc1ccc(C(=O)Nc2c(C(=O)NCc3ccc(Cl)cc3)sc3nc(C)cc(C)c23)cc1 | inactive: 82%
COCCN(Cc1cc2cc(C)c(C)cc2nc1Cl)C(C)=O | inactive: 102%
CCCCn1c2ccc(F)cc2c2nnc(SCCN(CC)CC)nc21 | inactive: 136%
Cc1ccc(CNC(=O)c2c3c(nc4ccccc24)C(=O)N(C2CCCCC2)C3)cc1 | inactive: 81%
Cc1csc2nc(COC(=O)c3ccccc3NC(=O)c3ccc(F)cc3)cc(=O)n12 | active: 14%
COc1cccc(NC(=O)CSc2nc3ccccc3nc2N2CCOCC2)c1 | inactive: 67%

SMILES | survival
CCc1ccc(CN2C(=O)c3ccccc3C2C(=O)NCCc2ccc(OC)c(OC)c2)cc1 (stereo unspecified) | inactive: 70%
CN(CC(=O)Nc1cccc(C(F)(F)F)c1)S(=O)(=O)c1ccc2[nH]c3c(c2c1)CCCC3 | inactive: 71%
COc1ccc(Cl)cc1NC(=O)CSc1nccn1Cc1ccco1 | inactive: 73%
COc1ccc(CC(=O)NCc2nc3cccnc3n2Cc2ccc(F)cc2)cc1OC | inactive: 73%
Cc1ccccc1NC(=O)c1sc2nc3c(cc2c1N)CCCC3 | inactive: 74%
Cc1ccc(C)c(N2CCN(C(=O)c3ccc(CS(=O)(=O)c4ccc(Br)cc4)o3)CC2)c1 | inactive: 145%
CCOc1cc2[nH]c(=O)n(Cc3ccc(C(=O)NCCN(CC)CC)cc3)c(=O)c2cc1OCC | inactive: 80%
COc1ccc(NC(=O)c2cc3c(=O)[nH]c4ccccc4c3n2C)cc1Cl | inactive: 72%
O=C(CN1CCOCC1)Nc1ccc(Cl)c(NC(=O)c2ccc(Cl)cc2)c1 | inactive: 108%
CCCN(C(=O)CCc1nc(-c2ccccc2F)no1)c1ccc(CC)cc1 | active: -2%
NC(=O)CSc1nnc(-c2ccccc2)n1-c1ccccc1 | inactive: 99%
Cc1ccc(S(=O)(=O)Nc2cc3c(cc2NCc2ccccc2)n(C)c(=O)n3C)c(C)c1 | inactive: 72%
CCN1CCN(CC(=O)NC23CC4CC(CC(C4)C2)C3)CC1 | inactive: 105%
O=C(CSCc1cccc(F)c1)NCc1ccccc1 | inactive: 85%
Fc1cccc(-n2ncc3c2ncn2nc(COc4ccc(Cl)cc4)nc32)c1 | inactive: 115%
CCCC1=Nc2cc(C(=O)NCc3ccc(OC)cc3)ccc2Sc2ccc(C)cc21 | inactive: 94%
COc1ccc(C(C(=O)NC2CCCC2)N(Cc2ccc(C)cc2)C(=O)c2ccn[nH]2)cc1OC (stereo unspecified) | inactive: 103%
COc1ccc(-c2cc3nc(C)c(CCC(=O)Nc4ccccc4C(C)=O)c(C)n3n2)c(OC)c1 | inactive: 76%
COc1ccc(-n2c(=O)c3c(c4cc(OC)ccc4n3C)n(Cc3cccc(OC)c3)c2=O)cc1 | inactive: 81%
O=C(CCC1N=C2c3ccccc3N=C(SCc3ccc(F)cc3)N2C1=O)NCc1ccc(F)cc1 (stereo unspecified) | inactive: 59%
